Over roughly 16,000 sequences, “Z-score” has its median near -0.37; the highest 2% begin near 3.2. The list shows a part of the results.
The sequences below were run on RBM10 RRM1-ZnF (GST-tagged construct) (assay: RNAcompete 7-mer binding Z-score; higher = stronger binding preference).
How it was run: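 In 1 ml Hepes pH 7.8 buffer with KCl, NaCl, glycerol, DTT, BSA and glutathione Sepharose beads, GST-tagged RBM10 constructs (20 pmol) were incubated for 30 min at 4°C with 1.5 nmol of a designed pool of 241 399 RNAs up to 41 nt. Four 2-min washes at 4°C followed, and bound RNA was detected by microarray hybridisation. Heptamer motif enrichment was expressed as a one-sided Z-score across probes containing each motif.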

Going from UAGCGAU to AAAAUGA, the “RNAcompete 7-mer binding Z-score” value rises from -0.194 to -0.0674.

Compared with GAGGGAA, CGCGACC is lower in “RNAcompete 7-mer binding Z-score” value: 3.42 for the first, -0.519 for the second.

Going from GCGCCUC to CUCUCGU, the “RNAcompete 7-mer binding Z-score” value falls from -0.457 to -0.649.

Going from CAGUUGG to UACCACG, the “RNAcompete 7-mer binding Z-score” value falls from 0.413 to -0.331.

First: UUGGAAG
Second: GCCCAAU
The “RNAcompete 7-mer binding Z-score” value of the first is higher: 1.7 for the first, -0.604 for the second.

First: AUCGAGU
Second: GUGCGAG
The “RNAcompete 7-mer binding Z-score” value of the first is lower: -0.168 for the first, 1.51 for the second.

First: AGGAGAG
Second: AGAUGGU
The “RNAcompete 7-mer binding Z-score” value of the first is higher: 2.07 for the first, 1.71 for the second.

Compared with CCCAUAU, CCUGCCC is higher in “RNAcompete 7-mer binding Z-score” value: -0.798 for the first, -0.305 for the second.

Compared with GACAGAG, AACAUAU is lower in “RNAcompete 7-mer binding Z-score” value: 0.816 for the first, -0.516 for the second.

First: ACUAUCU
Second: UGUAGUU
The “RNAcompete 7-mer binding Z-score” value of the first is lower: -0.759 for the first, 0.0365 for the second.

First: AUAGCUA
Second: AUGACGU
The “RNAcompete 7-mer binding Z-score” value of the first is higher: -0.357 for the first, -0.36 for the second.

Compared with ACUAAUA, CCAGGAA is higher in “RNAcompete 7-mer binding Z-score” value: -0.753 for the first, 0.28 for the second.

Going from CGGAGCC to ACUGGUU, the “RNAcompete 7-mer binding Z-score” value rises from -0.0382 to 0.251.

Going from CCAACGU to AAAGCGC, the “RNAcompete 7-mer binding Z-score” value rises from -0.415 to -0.223.

Compared with CCUAUUA, AGUCUAA is higher in “RNAcompete 7-mer binding Z-score” value: -0.86 for the first, -0.431 for the second.

Going from CGCAUCU to GGCUGUG, the “RNAcompete 7-mer binding Z-score” value rises from -0.704 to 0.904.

Going from AGCCCUU to GUUAGAA, the “RNAcompete 7-mer binding Z-score” value rises from -0.805 to 0.712.

First: UCGUAUG
Second: AAUCAAC
The “RNAcompete 7-mer binding Z-score” value of the first is higher: -0.214 for the first, -0.633 for the second.

First: UAUCUAG
Second: CCUUAAG
The “RNAcompete 7-mer binding Z-score” value of the first is higher: -0.477 for the first, -0.769 for the second.

Going from GAAAGUC to UGAUAUU, the “RNAcompete 7-mer binding Z-score” value falls from -0.119 to -0.506.

First: GGCGCCU
Second: GCGGAAA
The “RNAcompete 7-mer binding Z-score” value of the first is lower: -0.275 for the first, 1.34 for the second.

First: UAGGCGU
Second: GUGUUUC
The “RNAcompete 7-mer binding Z-score” value of the first is higher: 0.738 for the first, 0.0105 for the second.

Compared with ACACGAG, CAUGCAG is lower in “RNAcompete 7-mer binding Z-score” value: -0.00246 for the first, -0.344 for the second.

Compared with GAUAGUU, GCAUAUU is lower in “RNAcompete 7-mer binding Z-score” value: -0.129 for the first, -0.565 for the second.

First: UAGUGAU
Second: UGUAAUC
The “RNAcompete 7-mer binding Z-score” value of the first is higher: 0.166 for the first, -0.529 for the second.

Going from GUCCUAG to AAGCUAG, the “RNAcompete 7-mer binding Z-score” value rises from -0.487 to -0.0739.

First: CAGCGAG
Second: ACACACA
The “RNAcompete 7-mer binding Z-score” value of the first is higher: 0.397 for the first, -0.493 for the second.

Compared with CAGUUUA, UUGCGGG is higher in “RNAcompete 7-mer binding Z-score” value: -0.681 for the first, 1.52 for the second.

Going from UUUACUU to CACAUUU, the “RNAcompete 7-mer binding Z-score” value falls from -0.707 to -0.88.

First: CUACGGA
Second: CAGAAAC
The “RNAcompete 7-mer binding Z-score” value of the first is higher: 0.0723 for the first, -0.444 for the second.

Going from CCUCCUC to UUUGAUU, the “RNAcompete 7-mer binding Z-score” value rises from -0.542 to -0.448.

First: AACUAGU
Second: CCGCAAG
The “RNAcompete 7-mer binding Z-score” value of the first is higher: -0.373 for the first, -0.685 for the second.

Compared with CGUGCAA, GACGUAU is lower in “RNAcompete 7-mer binding Z-score” value: -0.214 for the first, -0.256 for the second.

Going from CUUUUGA to GUUGAGG, the “RNAcompete 7-mer binding Z-score” value rises from -0.854 to 3.36.

Going from CGAGUCA to GAAGAGG, the “RNAcompete 7-mer binding Z-score” value rises from -0.379 to 3.

Compared with CAAAAAU, UCGGUUA is higher in “RNAcompete 7-mer binding Z-score” value: -0.526 for the first, -0.0869 for the second.

Compared with ACCAUGU, AAAUCAU is higher in “RNAcompete 7-mer binding Z-score” value: -0.782 for the first, -0.665 for the second.

Compared with UCAGAGA, CGGCUGU is lower in “RNAcompete 7-mer binding Z-score” value: -0.0967 for the first, -0.308 for the second.

First: UCGGACA
Second: CUCUGUG
The “RNAcompete 7-mer binding Z-score” value of the first is higher: -0.0999 for the first, -0.698 for the second.

Going from CGCACAA to GUUCGGC, the “RNAcompete 7-mer binding Z-score” value rises from -0.587 to -0.0869.

Going from AUGAACA to ACUGAUC, the “RNAcompete 7-mer binding Z-score” value falls from 0.215 to -0.691.

Going from AGAUCAA to GCCAAUG, the “RNAcompete 7-mer binding Z-score” value rises from -0.513 to -0.0934.

Going from GUAGUUC to AGCGCCC, the “RNAcompete 7-mer binding Z-score” value falls from -0.243 to -0.5.

Going from UGGGCUG to CUGCACC, the “RNAcompete 7-mer binding Z-score” value falls from 1.83 to -0.441.

Compared with GUCGAUC, ACACUGG is higher in “RNAcompete 7-mer binding Z-score” value: -0.269 for the first, 0.332 for the second.

Going from CCCAUCU to UAUACAU, the “RNAcompete 7-mer binding Z-score” value rises from -0.834 to -0.509.

Compared with AUGAGUU, AGGCAAG is higher in “RNAcompete 7-mer binding Z-score” value: 0.134 for the first, 1.09 for the second.

Compared with AGACAAG, CCUAAAU is lower in “RNAcompete 7-mer binding Z-score” value: 0.449 for the first, -0.74 for the second.

Compared with ACAUCCC, AAGCAGC is higher in “RNAcompete 7-mer binding Z-score” value: -0.587 for the first, -0.0934 for the second.

First: UAAAUUA
Second: ACGCGCC
The “RNAcompete 7-mer binding Z-score” value of the first is higher: -0.532 for the first, -0.542 for the second.

First: UAUGGUA
Second: GUACGCG
The “RNAcompete 7-mer binding Z-score” value of the first is higher: 1.39 for the first, 0.599 for the second.

Going from GGCACGG to GCAGGCC, the “RNAcompete 7-mer binding Z-score” value falls from 1.43 to -0.178.

First: CUUUCAU
Second: UCAAUAG
The “RNAcompete 7-mer binding Z-score” value of the first is lower: -0.785 for the first, -0.256 for the second.

First: ACACCAC
Second: UUAGUGG
The “RNAcompete 7-mer binding Z-score” value of the first is lower: -0.162 for the first, 1.42 for the second.

First: ACUACGG
Second: AGGCCCC
The “RNAcompete 7-mer binding Z-score” value of the first is higher: 0.365 for the first, -0.626 for the second.

Going from CUAUCCG to UAAGCUG, the “RNAcompete 7-mer binding Z-score” value rises from -0.863 to -0.201.

First: UUAGCCG
Second: GCCAGUG
The “RNAcompete 7-mer binding Z-score” value of the first is lower: -0.844 for the first, -0.253 for the second.

First: UUUGAGA
Second: CGGCUUC
The “RNAcompete 7-mer binding Z-score” value of the first is higher: 0.043 for the first, -0.633 for the second.

Going from UUGUCUC to UUUAAAG, the “RNAcompete 7-mer binding Z-score” value rises from -0.808 to -0.334.

First: UUAUGCC
Second: GCAUGUU
The “RNAcompete 7-mer binding Z-score” value of the first is lower: -0.724 for the first, -0.373 for the second.

Compared with GUCCCAA, CUGAUAA is higher in “RNAcompete 7-mer binding Z-score” value: -0.626 for the first, -0.457 for the second.

Going from UACGUGU to CCUUCGG, the “RNAcompete 7-mer binding Z-score” value falls from -0.318 to -0.636.

First: CUAGUGU
Second: AUAAUGA
The “RNAcompete 7-mer binding Z-score” value of the first is lower: -0.412 for the first, -0.0837 for the second.

First: ACUCUUG
Second: UUCUUGU
The “RNAcompete 7-mer binding Z-score” value of the first is lower: -0.776 for the first, -0.668 for the second.

First: AUCAUUA
Second: AGGAUGC
The “RNAcompete 7-mer binding Z-score” value of the first is lower: -0.539 for the first, 1.03 for the second.

Going from UUAGGGA to UGGACUU, the “RNAcompete 7-mer binding Z-score” value falls from 2.03 to 0.0235.

Compared with CUAGGUC, UCGUUCC is lower in “RNAcompete 7-mer binding Z-score” value: -0.0544 for the first, -0.698 for the second.

Compared with GUUGGUU, CAAGGCU is lower in “RNAcompete 7-mer binding Z-score” value: 0.914 for the first, -0.314 for the second.

First: ACGACUC
Second: ACGCUAU
The “RNAcompete 7-mer binding Z-score” value of the first is lower: -0.815 for the first, -0.496 for the second.

Going from CGACCUG to GCUGGAG, the “RNAcompete 7-mer binding Z-score” value rises from -0.571 to 0.904.

First: GCCAAGU
Second: ACGAAUU
The “RNAcompete 7-mer binding Z-score” value of the first is lower: -0.529 for the first, -0.503 for the second.

First: GGUCCUG
Second: AGCGGUG
The “RNAcompete 7-mer binding Z-score” value of the first is lower: 0.15 for the first, 1.42 for the second.

Going from UCCUAUG to UAGAAAC, the “RNAcompete 7-mer binding Z-score” value rises from -0.73 to 0.0105.

First: GGAAAGU
Second: ACCUAGC
The “RNAcompete 7-mer binding Z-score” value of the first is higher: 2.15 for the first, -0.633 for the second.

First: AAUAUGA
Second: AGCACUG
The “RNAcompete 7-mer binding Z-score” value of the first is higher: 0.056 for the first, -0.158 for the second.

First: AACCAGC
Second: UGAAGGC
The “RNAcompete 7-mer binding Z-score” value of the first is lower: -0.724 for the first, 1 for the second.

First: CAACUCA
Second: AUUAUAG
The “RNAcompete 7-mer binding Z-score” value of the first is lower: -0.655 for the first, 0.095 for the second.

Going from UGUCGGC to CCCAGGA, the “RNAcompete 7-mer binding Z-score” value rises from -0.444 to -0.0869.

Going from CACAGGC to GCCUCCU, the “RNAcompete 7-mer binding Z-score” value falls from -0.126 to -0.623.

Going from ACGCGUU to AGUACAG, the “RNAcompete 7-mer binding Z-score” value rises from -0.503 to 0.576.

First: GUACUCC
Second: CGUCAUA
The “RNAcompete 7-mer binding Z-score” value of the first is higher: -0.604 for the first, -0.714 for the second.

First: GAUGUAC
Second: AUGUGUG
The “RNAcompete 7-mer binding Z-score” value of the first is lower: -0.0285 for the first, 1.01 for the second.

First: UUUCUUA
Second: AAGGAGG
The “RNAcompete 7-mer binding Z-score” value of the first is lower: -0.727 for the first, 4.7 for the second.

First: CCGUCGC
Second: UGUCGUA
The “RNAcompete 7-mer binding Z-score” value of the first is lower: -0.62 for the first, -0.311 for the second.

First: CGAAAAG
Second: AUCCGAA
The “RNAcompete 7-mer binding Z-score” value of the first is higher: 0.381 for the first, -0.665 for the second.

Compared with CCAUGAU, UGACUUG is higher in “RNAcompete 7-mer binding Z-score” value: -0.685 for the first, -0.617 for the second.

Compared with UCUUGUC, UCUUUGU is lower in “RNAcompete 7-mer binding Z-score” value: -0.795 for the first, -0.912 for the second.

First: CACCCAG
Second: GACGGAG
The “RNAcompete 7-mer binding Z-score” value of the first is lower: -0.522 for the first, 2.11 for the second.

Going from UCUUGCC to CCUCCCU, the “RNAcompete 7-mer binding Z-score” value rises from -0.945 to -0.454.

First: ACAGUUC
Second: GGACAGG
The “RNAcompete 7-mer binding Z-score” value of the first is lower: -0.795 for the first, 3.3 for the second.

First: UGACCCC
Second: UACGCUG
The “RNAcompete 7-mer binding Z-score” value of the first is lower: -0.246 for the first, -0.184 for the second.

First: CCACGAU
Second: GUUUAAU
The “RNAcompete 7-mer binding Z-score” value of the first is lower: -0.652 for the first, -0.435 for the second.
